Measurements from article PMC6919601, “Identification of Plasmodium dipeptidyl aminopeptidase allosteric inhibitors by high throughput screening” (PLoS ONE, 2019).
In all, about 110,000 compounds went through this assay and about 230 (0.21%) showed an effect of 50% or more. Some of the results follow.

What follows are molecules tested against DPAP1 (Plasmodium falciparum, UniProt Q8IIJ9) (assay: primary screen, percent inhibition; read by cleavage of a fluorogenic dipeptide substrate; higher = more effect of the substance).
DPAP1, sequence (Q8IIJ9 whole entry, looked up): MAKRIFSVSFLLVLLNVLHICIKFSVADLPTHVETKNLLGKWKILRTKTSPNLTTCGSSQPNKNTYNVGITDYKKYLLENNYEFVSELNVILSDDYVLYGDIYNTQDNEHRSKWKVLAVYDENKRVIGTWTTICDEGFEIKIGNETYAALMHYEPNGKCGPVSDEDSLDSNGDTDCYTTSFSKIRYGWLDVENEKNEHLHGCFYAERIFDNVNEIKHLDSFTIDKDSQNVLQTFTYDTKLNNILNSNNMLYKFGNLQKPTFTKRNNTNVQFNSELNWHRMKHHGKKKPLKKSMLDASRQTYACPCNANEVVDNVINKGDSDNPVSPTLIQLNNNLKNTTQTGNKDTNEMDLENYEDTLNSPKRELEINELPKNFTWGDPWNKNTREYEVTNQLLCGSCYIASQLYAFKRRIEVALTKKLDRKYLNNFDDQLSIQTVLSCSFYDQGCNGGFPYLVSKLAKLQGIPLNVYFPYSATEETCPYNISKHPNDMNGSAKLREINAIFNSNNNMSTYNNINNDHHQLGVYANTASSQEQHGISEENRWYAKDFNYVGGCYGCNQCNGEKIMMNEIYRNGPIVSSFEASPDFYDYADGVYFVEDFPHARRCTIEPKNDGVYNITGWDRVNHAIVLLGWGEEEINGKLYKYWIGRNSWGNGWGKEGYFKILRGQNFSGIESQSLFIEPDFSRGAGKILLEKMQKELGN
Parameters: species or system P. falciparum D10 trophozoite lysates; single well
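Further: 30 min substrate incubation versus DMSO and 10 µM JCP410 controls.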

Row | Compound | % Inhibition @ 10 uM
1 | CN(C)CCN(C)Cc1cc(Br)cs1 | 0.215%
2 | COc1cccc(C(=O)Nc2ccc(C(C)C)cc2)c1 | -1.25%
3 | Cc1cc(NC(=O)CCn2cnnn2)no1 | 1.76%
4 | COc1ccc(-c2nnc3n2N=C(c2cc4cccc(OC)c4oc2=O)CS3)cc1 | 6.65%
5 | CCOC(=O)C1CCCN(Cc2cccc(C)c2)C1 (stereo not drawn) | -3.71%
6 | COc1ccc(-n2ncc(C(=O)N3CCCC3)c2C2CCN(C(=O)OC(C)(C)C)CC2)cc1 | -10.2%
7 | CCOC(=O)C1=C(C)N(C)C(C)=C(C(=O)OCC)C1c1ccccc1 | 1.03%
8 | CCn1c(-c2nc3ccccc3n2CC)nc2ccccc21 | -4.39%
9 | c1ccc(CC2CCN(c3nnc(Cc4cccnc4)c4ccccc34)CC2)cc1 | -10.4%
10 | Cc1ccc(-c2cc(C(=O)NCc3cccnc3)c3ccccc3n2)cc1C | -4.06%
11 | N#CC1=C(c2ccccc2)C(c2ccccc2)OC1=O (stereo not drawn) | -1.86%
12 | Cc1ccc(C)c(NC2=C(Cl)C(=O)N(c3ccccc3)C2=O)c1 | 4.28%
13 | Cn1c(=O)c2nnc(O)nc2n(C)c1=O | 0.558%
14 | O=C(CSc1[nH]c(-c2ccccc2)nc1-c1ccccc1)Nc1nccs1 | 3.48%
15 | Cc1ccc2[nH]c3c(c2c1)CCCC3(C)C(N)=O (stereo not drawn) | 1.57%
16 | CC1CCC(NC(=O)Cn2c3ccccc3c3cnnc(O)c32)CC1 (stereo not drawn) | -2%
17 | O=C(NCc1cccnc1)c1ccc(CN2CCC(Cc3ccccc3)CC2)cc1 | -9.6%
18 | N#CC1=C(N)Oc2cc(O)ccc2C1c1cccc(O)c1 (stereo not drawn) | -3.48%
19 | C1CCCN(C2CN3CCC2CC3)CCC1 (stereo not drawn) | 0.162%
20 | COc1ccccc1C1CC(=O)NC2=C1C(=O)CC(c1cccs1)C2 (stereo not drawn) | -2.95%
21 | CCOc1cccc2sc(N(CCN(C)C)C(C)=O)nc12 | -1.14%
22 | Cc1c2cnn(CC(=O)NCCCc3ccccc3)c(=O)c2c(C)n1Cc1ccccc1F | 4.4%

Row | Compound | % Inhibition @ 10 uM
23 | COC(=O)C1=CN(Cc2cccs2)C=C(C(=O)OC)C1c1ccc(OC)c(OC)c1OC | -6.91%
24 | Cc1cccc(C(=O)NCc2ccc(-n3cccc3)cc2)c1 | 4.31%
25 | COc1cc2c3c(c1OC)-c1ccccc1CC3N(C)CC2 (stereo not drawn) | -3.63%
26 | CC(C)(O)C#Cc1ccc(C(=O)N2CCN(c3ccc(F)cc3)CC2)cc1 | -1.32%
27 | CN(C(=O)Nc1cn(C)c(=O)c2ccccc12)C1CCCCC1 | 6.08%
28 | Cc1ccc(OCc2occc2C(=O)O)cc1 | 3.06%
29 | Clc1ccccc1-c1ccc(-c2nn3c(-c4ccco4)nnc3s2)o1 | -3.64%
30 | COc1ccc(Br)cc1/C=C1\N=C(c2cc(Br)ccc2OC)OC1=O | 8.06%
31 | CC1(C)OC2C(CO)OC(n3c(Br)nc4c(O)nc(N)nc43)C2O1 (stereo not drawn) | -0.902%
32 | CCOC(=O)C1=C(C)OC(N)=C(C#N)C1c1ccc(Br)cc1 (stereo not drawn) | 3.54%
33 | CCCN1CCN(C(=O)C2=C(C)C(=O)OC23CCN(S(=O)(=O)CC)CC3)CC1 | -6.67%
34 | Cc1ccc(N2C(=O)C3C(C2=O)C2C=CC3C23CC3)cc1Cl (stereo not drawn) | -5.98%
35 | Cc1sc2nc3c4ccccc4c(N4CCN(CCO)CC4)nn3c(=O)c2c1C | 6.58%
36 | CN(C)C(CNC(=S)NCCc1ccccc1)c1cccnc1 (stereo not drawn) | -0.499%
37 | CC(=O)N(CC12CC3CC(CC(C3)C1)C2)C1CC(=O)N(c2cccc(Cl)c2)C1=O (stereo not drawn) | 0.475%
38 | COc1ccc(NC(=O)c2cc(-c3ccco3)nc3ccccc23)cc1 | 5.82%
39 | Nc1cc(O)nc(SCC(=O)N2c3ccccc3Sc3ccccc32)n1 | -6.7%
40 | COc1cccc(-c2nn(C)c3sc(C(=O)NCc4cccnc4)cc23)c1 | 1.23%
41 | Cc1ccc(N(CC(=O)N2CCC(C)CC2)S(=O)(=O)c2ccccc2)cc1 | -7.08%
42 | N#C/C(=C\c1c(Oc2ccc(Br)cc2)nc2ccccn2c1=O)C(=O)N1CCOCC1 | -0.828%
43 | CCc1ccc(/C=C2\SC(N)=NC2=O)cc1 | 2.56%
44 | CC1CCN(C2=NN3C(=N)/C(=C\c4ccc(O)cc4)C(=O)N=C3S2)CC1 | 0.0579%

Row | Compound | % Inhibition @ 10 uM
45 | OC1CCCN(Cc2ccc(Br)cc2)C1 (stereo not drawn) | -0.828%
46 | O=C(c1cc(-c2ccccc2)c(N2CCCCC2)s1)N1CCC(N2CCCCC2)CC1 | -6.64%
47 | Fc1cccc(-c2nc3ncccc3o2)c1 | -0.92%
48 | COCc1nn2cc(-c3ccc(F)cc3)nc2s1 | -6.43%
49 | CCOC(=O)c1sc2nccc(NCc3ccccc3)c2c1N | -1.07%
50 | Cc1[nH]c2ccc(C(=O)NCCCN(C)C3CCCCC3)cc2c1C | 2.79%
51 | CC(C)(C)NC(=O)NS(=O)(=O)c1ccccc1Cl | -2.77%
52 | O=C(c1ccco1)N1CCN(S(=O)(=O)c2ccc(-n3cnnn3)cc2)CC1 | 2.29%
53 | Cc1ccc(NC(=O)c2ccccc2F)cc1Cl | 1.29%
54 | Cc1cc(O)nc(SCCOc2ccccc2)n1 | 2.67%
55 | O=C1C2C3c4ccccc4C(c4ccccc43)C2C(=O)N1CNc1ccccc1 (stereo not drawn) | 2.03%
56 | Clc1ccc(C2NCc3ccccc3-n3cccc32)cc1 (stereo not drawn) | 4.61%
57 | COc1ccc(C2CC(=O)N=C(NC(=O)c3ccc(C(C)(C)C)cc3)N2)cc1 (stereo not drawn) | 2.65%
58 | CCOCCCNC(=O)c1ccc(-c2nc(CS(=O)(=O)c3ccc(C)cc3)c(C)o2)cc1 | -2.37%
59 | COc1ccc(C(=O)O)cc1COc1cc(C)ccc1C | 3.17%
60 | COc1ccccc1N1C(=O)C2C(c3ccccc3C)OC3(C(=O)c4ccccc4C3=O)C2C1=O (stereo not drawn) | 0.247%
61 | Cc1ccsc1CNn1cnnc1SCc1ccc(Cl)cc1 | 2.7%
62 | CN(C)CCNC(=O)c1nn(C)c2c1CS(=O)(=O)c1ccccc1-2 | -5.37%
63 | COc1ccc(-c2cc(C(F)(F)F)n3nc(C(=O)NCc4cn(C)nc4C)c(Cl)c3n2)cc1 | -1.21%
64 | N#CCCC12CCCCC1=Nc1ccccc12 (stereo not drawn) | -8.22%
65 | CCOC(=O)c1cnc2c(Cl)c(Cl)ccc2c1O | 3.01%
66 | CC(C)Cc1cc(C(=O)NCc2ccc(F)cc2)no1 | -10%
